Experimental data: PMC4336329 (PLoS ONE, 2015)
Screen size: about 310,000 compounds; about 14,000 (4.5%) showed an effect of 50% or more. Effects have a minus sign here. The list shows a part of the results.

molecular target: human ether-à-go-go-related gene (hERG) potassium channel (human, UniProt Q12809); test: primary screen, population patch clamp on CHO cells stably expressing hERG
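Further: peak tail current of the secondary pulse compared with the same well before compound.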

Sequence of human ether-à-go-go-related gene (hERG) potassium channel (Q12809 whole entry, looked up): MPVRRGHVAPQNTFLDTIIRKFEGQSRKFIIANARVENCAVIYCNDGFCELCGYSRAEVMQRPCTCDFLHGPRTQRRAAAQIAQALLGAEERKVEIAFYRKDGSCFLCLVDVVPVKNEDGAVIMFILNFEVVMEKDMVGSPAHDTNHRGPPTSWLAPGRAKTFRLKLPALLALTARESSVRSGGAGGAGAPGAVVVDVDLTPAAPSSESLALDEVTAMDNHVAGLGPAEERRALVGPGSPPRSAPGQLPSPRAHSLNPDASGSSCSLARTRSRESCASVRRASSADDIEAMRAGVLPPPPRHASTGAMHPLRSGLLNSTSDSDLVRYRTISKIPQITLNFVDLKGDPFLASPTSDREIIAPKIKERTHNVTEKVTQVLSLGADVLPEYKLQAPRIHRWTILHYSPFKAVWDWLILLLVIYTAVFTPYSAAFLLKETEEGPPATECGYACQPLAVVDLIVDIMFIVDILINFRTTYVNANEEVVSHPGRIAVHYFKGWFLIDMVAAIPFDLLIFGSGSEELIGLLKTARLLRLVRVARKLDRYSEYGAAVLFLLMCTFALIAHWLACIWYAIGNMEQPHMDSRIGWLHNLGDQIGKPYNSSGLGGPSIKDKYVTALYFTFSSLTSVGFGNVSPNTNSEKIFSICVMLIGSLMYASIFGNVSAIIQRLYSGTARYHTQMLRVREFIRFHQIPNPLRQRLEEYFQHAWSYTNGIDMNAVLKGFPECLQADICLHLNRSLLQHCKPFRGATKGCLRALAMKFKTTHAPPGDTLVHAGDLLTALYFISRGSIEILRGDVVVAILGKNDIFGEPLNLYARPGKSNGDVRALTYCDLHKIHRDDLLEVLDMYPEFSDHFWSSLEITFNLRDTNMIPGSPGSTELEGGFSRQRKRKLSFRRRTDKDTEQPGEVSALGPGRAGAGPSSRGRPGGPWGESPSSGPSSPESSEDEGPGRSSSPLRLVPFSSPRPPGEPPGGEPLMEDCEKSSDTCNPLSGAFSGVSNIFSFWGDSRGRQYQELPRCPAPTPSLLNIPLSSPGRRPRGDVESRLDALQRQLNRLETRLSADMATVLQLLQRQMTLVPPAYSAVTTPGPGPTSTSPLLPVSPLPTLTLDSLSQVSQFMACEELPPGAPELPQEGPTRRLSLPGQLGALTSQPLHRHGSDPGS

| Structure (SMILES) | hERG current change (%, negative = inhibition) at 10uM [%] |
| --- | --- |
| CCc1nnc(NC(=O)CN2CCN(Cc3cccc(F)c3)CC2)s1 | -0.435 |
| O=C(N/N=C/c1ccc[nH]1)c1cc(-c2cccs2)nc2ccccc12 | 0.659 |
| O=C(C1CCC(=O)N(C2CC2)C1)N1CCC(Oc2ccccc2F)CC1 (stereo not drawn) | 2.26 |
| CC(C)c1ccc(S(=O)(=O)c2cc3cc(Br)ccc3oc2=O)cc1 | -2.26 |
| COc1ccccc1OCCNC(=O)CSC(=S)N1CCCC1 | -4.17 |
| CCC1=C2CC[C@H]3C(=O)N(CC)C(=O)[C@H]3[C@H]2[C@@]2(Cc3ccccc3)C(=NCc3ccccc3)OC(=O)N2C1=O | -25 |
| CCOC(=O)C1CCCN(C(=O)C2CCN(S(=O)(=O)N3CCC4(CC3)OCCO4)CC2)C1 (stereo not drawn) | 3.08 |
| CC1Sc2ccc(C(=O)Nc3cc(S(C)(=O)=O)ccc3Cl)cc2NC1=O (stereo not drawn) | 3.5 |
| CC1(C)CC(=O)C(C(c2ccncc2)C2C(=O)CC(C)(C)CC2=O)C(=O)C1 | 3.95 |
| COc1ccc(Nc2nc3ccc(C)cn3c(=O)c2/C=N/O)cc1 | 26.6 |
| CS(=O)(=O)O.Cc1c(O)cccc1C(=O)N[C@@H](CSc1ccccc1)[C@H](O)CN1C[C@H]2CCCC[C@H]2C[C@H]1C(=O)NC(C)(C)C | -4.69 |
| CN(C)CC[n+]1ccc(C(=O)c2ccccc2)cc1.Cl.[Cl-] | 25.4 |
| O=C(c1cccnc1)N1CCCC(Nc2ccc(F)cc2)C1 (stereo not drawn) | 7.99 |
| Cl.N=c1c2c(n(Cc3ccc(Cl)cc3Cl)c3c1CCC3)CCCC2 | -29 |
| Cc1ccc2oc(C(=O)N(C)Cc3ccon3)c(C)c2c1 | 4.23 |
| Cc1ccc(S(=O)(=O)NCCNC(=O)CN2CCCC2)cc1 | -11.9 |
| O=C(c1ccc(CN2CCOCC2)cc1)N1CCN(c2ccccc2F)CC1 | -3.33 |
| CC(=O)NC1(NC(C)=O)CCN(C)CC1 | 11 |
| N/C(=N\OC(=O)CC(c1ccccc1)c1ccccc1)c1cccnc1 | 11.1 |
| COc1cccc(C2c3[nH]c4ccccc4c3CCN2C(=O)Cn2cncn2)c1OC (stereo not drawn) | 0.145 |
| Fc1ccc(Cn2c(SCc3ccc(F)c(C(F)(F)F)c3)nnc2C(F)(F)F)cc1 | -4.63 |

| Structure (SMILES) | hERG current change (%, negative = inhibition) at 10uM [%] |
| --- | --- |
| COc1ccc(CN(CCc2ccccc2)Cc2ccccc2)cc1OC.O=C(O)C(=O)O | -9.99 |
| O=C(COc1ncnc2ccccc12)Nc1cc([N+](=O)[O-])ccc1Cl | 28 |
| CCN(CC)CCNC(=O)C1c2ccccc2C(=O)N(C)C1c1cn(C)c2ccccc12 (stereo not drawn) | -19.5 |
| CC(C)(C)c1cc(C(=O)O)c(CN2CCCCC2)o1.Cl | -23.5 |
| O=C(Nc1ccccc1C(=O)NCc1ccco1)Nc1cccc2ccccc12 | 25.1 |
| O=C(Nc1ccc(F)cc1F)c1cccc(C(=O)Nc2ccc(F)cc2F)n1 | 13.2 |
| Cc1ccccc1NC(=O)Cc1nnc(SCC(=O)NC2CCCCC2)n1C | 19.5 |
| COc1ccccc1-n1c(-c2ccccc2Br)nc2ccccc2c1=O | -6.37 |
| Cc1ccc(NC(NC(=O)OCCn2c([N+](=O)[O-])cnc2C)C(Cl)(Cl)Cl)cc1 (stereo not drawn) | 6.71 |
| C=CC(=O)NCC1OCCc2ccccc21 (stereo not drawn) | 3.45 |
| CCn1cc(C2=NOC(C(=O)Nc3cc(C)nn3-c3ccccc3)C2)c(C)n1 (stereo not drawn) | -23.3 |
| Cc1ccc(OCC(=O)c2cc(C)n(Cc3cccs3)c2C)c([N+](=O)[O-])n1 | -4.57 |
| O=C(Cn1nnc(-c2ccccc2)n1)NNC(=O)c1cccc([N+](=O)[O-])c1 | 26.3 |
| O=C(O)c1ccc(/C=N/N2CCN(c3ccccc3)CC2)cc1 | 7.59 |
| CCOCCc1nnc(NC(=O)C2CCN(C(=O)c3ccco3)CC2)s1 | 21.8 |
| Cc1ccc(-c2csc(NC(=O)C3=NN(c4ccccc4)C(=O)CC3)n2)cc1 | 3.35 |
| Cc1ccc(NC2=NC(c3ccc(O)cc3)n3c(nc(C)cc3=O)N2)cc1 (stereo not drawn) | -2.97 |
| Cc1cc(C)c(OCC(O)CN2CCN(C(=O)c3ccccc3)CC2)c(C)c1.O=C(O)C(=O)O (stereo not drawn) | -46.4 |
| O=C1NC[C@@H](Cc2ccc(O)cc2)N(CC2CCCCC2)C1=O | 17.9 |
| O=C(NCCCSc1ccccc1)c1cc(Br)ccc1O | 4.35 |
| CCOc1ccccc1-c1noc(CCC(=O)Nc2cccnc2)n1 | 9.94 |
